Reference: patent US9023789B2, “Amylin analogs and pharmaceutical compositions thereof” (Novo Nordisk A/S, priority 2012, dated 2015)
The name of at least one read-out is uncertain. Numbered stars: 1 amine (or outer) side, 2 acyl side, 3 side chain; on linkers, the order of the positions; unused ones are H or OH. Bridge positions count the residues as written; N and C are the ends. Peptide text beside a SMILES is read from it. * marks the point of attachment. C20 diacid = O=C(O)CCCCCCCCCCCCCCCCCCC(=O)*; γGlu = O=C(O)[C@H](CCC(=O)[*:2])N[*:1]

Test: ASSAY (III) ThT fibrillation assay for physical stability
Assay type: physicochemical
Procedure, shortened: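 Formulations with 1 μM ThT, pH adjusted as required, incubated at 37 °C with 960 rpm orbital shaking; fluorescence (ex 444/em 485 nm) read every 20 min. Fibrillation reported as mean ThT fluorescence ± SD of 4–8 replicates at time points; polypeptide concentration measured by reverse-phase HPLC before and after, post-centrifugation.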

Row | SMILES | ThT pH 4.0 recovery (%)
1 | CC[C@H](C)[C@H](NC(=O)[C@H](C)NC(=O)CNC(=O)[C@H](Cc1ccccc1)NC(=O)[C@H](CC(N)=O)NC(=O)[C@@H]1CCCN1C(=O)[C@H](CO)NC(=O)[C@H](CO)NC(=O)[C@H](Cc1c[nH]cn1)NC(=O)[C@H](CCCNC(=N)N)NC(=O)[C@H](CC(C)C)NC(=O)[C@H](Cc1ccccc1)NC(=O)[C@H](CC(N)=O)NC(=O)[C@H](C)NC(=O)[C@H](CC(C)C)NC(=O)[C@H](CCCNC(=N)N)NC(=O)[C@H](CCC(N)=O)NC(=O)[C@@H](NC(=O)[C@H](C)NC(=O)[C@@H]1CSSC[C@H](NC(=O)[C@@H](N)CCCCNC(=O)COCCOCCNC(=O)COCCOCCNC(=O)CC[C@H](NC(=O)CCCCCCCCCCCCCCCCCCC(=O)O)C(=O)O)C(=O)N[C@@H](CC(N)=O)C(=O)N[C@@H]([C@@H](C)O)C(=O)N[C@@H](C)C(=O)N[C@@H]([C@@H](C)O)C(=O)N1)[C@@H](C)O)C(=O)N1CCC[C@H]1C(=O)N[C@@H](CO)C(=O)N[C@@H](CO)C(=O)N[C@H](C(=O)N1CCC[C@H]1C(=O)N[C@H](C(=O)NCC(=O)N[C@@H](CO)C(=O)N[C@@H](CC(N)=O)C(=O)N[C@H](C(=O)N[C@@H](Cc1ccc(O)cc1)C(N)=O)[C@@H](C)O)C(C)C)[C@@H](C)O [Example 96] | 32%
2 | CC[C@H](C)[C@H](NC(=O)[C@H](C)NC(=O)CNC(=O)[C@H](Cc1ccccc1)NC(=O)[C@H](CC(N)=O)NC(=O)[C@@H]1CCCN1C(=O)[C@H](CO)NC(=O)[C@H](CO)NC(=O)[C@H](Cc1c[nH]cn1)NC(=O)[C@H](CCCNC(=N)N)NC(=O)[C@H](CC(C)C)NC(=O)[C@H](Cc1ccccc1)NC(=O)[C@H](CC(N)=O)NC(=O)[C@H](C)NC(=O)[C@H](CC(C)C)NC(=O)[C@H](CCCNC(=N)N)NC(=O)[C@H](CCC(N)=O)NC(=O)[C@@H](NC(=O)[C@H](C)NC(=O)[C@@H]1CSSC[C@H](NC(=O)[C@@H](N)CCCCNC(=O)COCCOCCNC(=O)COCCOCCNC(=O)CC[C@H](NC(=O)CCCCCCCCCCCCCCCCCCC(=O)O)C(=O)O)C(=O)N[C@@H](CC(N)=O)C(=O)N[C@@H]([C@@H](C)O)C(=O)N[C@@H](C)C(=O)N[C@@H]([C@@H](C)O)C(=O)N1)[C@@H](C)O)C(=O)N1CCC[C@H]1C(=O)N[C@@H](CO)C(=O)N[C@@H](CO)C(=O)N[C@H](C(=O)N[C@@H](CC(N)=O)C(=O)N[C@H](C(=O)NCC(=O)N[C@@H](Cc1c[nH]cn1)C(=O)N[C@@H](CC(N)=O)C(=O)N[C@H](C(=O)N[C@@H](Cc1ccc(O)cc1)C(N)=O)[C@@H](C)O)C(C)C)[C@@H](C)O [Example 97] | 77%
3 | CC[C@H](C)[C@H](NC(=O)[C@H](C)NC(=O)CNC(=O)[C@H](Cc1ccccc1)NC(=O)[C@H](CC(N)=O)NC(=O)[C@@H]1CCCN1C(=O)[C@H](CO)NC(=O)[C@H](CO)NC(=O)[C@H](Cc1c[nH]cn1)NC(=O)[C@H](CCCNC(=N)N)NC(=O)[C@H](CC(C)C)NC(=O)[C@H](Cc1ccccc1)NC(=O)[C@H](CC(N)=O)NC(=O)[C@H](C)NC(=O)[C@H](CC(C)C)NC(=O)[C@H](CCCNC(=N)N)NC(=O)[C@H](CCC(N)=O)NC(=O)[C@@H](NC(=O)[C@H](C)NC(=O)[C@@H]1CSSC[C@H](NC(=O)[C@@H](N)CCCCNC(=O)COCCOCCNC(=O)COCCOCCNC(=O)CC[C@H](NC(=O)CCCCCCCCCCCCCCCCCCC(=O)O)C(=O)O)C(=O)N[C@@H](CC(N)=O)C(=O)N[C@@H]([C@@H](C)O)C(=O)N[C@@H](C)C(=O)N[C@@H]([C@@H](C)O)C(=O)N1)[C@@H](C)O)C(=O)N1CCC[C@H]1C(=O)N[C@@H](CO)C(=O)N[C@@H](CO)C(=O)N[C@H](C(=O)N[C@@H](CC(N)=O)C(=O)N[C@H](C(=O)NCC(=O)N1CCC[C@H]1C(=O)N[C@@H](CC(N)=O)C(=O)N[C@H](C(=O)N[C@@H](Cc1ccc(O)cc1)C(N)=O)[C@@H](C)O)C(C)C)[C@@H](C)O [Example 98] | 0%
4 | CC[C@H](C)[C@H](NC(=O)[C@H](C)NC(=O)CNC(=O)[C@H](Cc1ccccc1)NC(=O)[C@H](CC(N)=O)NC(=O)[C@@H]1CCCN1C(=O)[C@H](CO)NC(=O)[C@H](CO)NC(=O)[C@H](Cc1c[nH]cn1)NC(=O)[C@H](CCCNC(=N)N)NC(=O)[C@H](CC(C)C)NC(=O)[C@H](Cc1ccccc1)NC(=O)[C@H](Cc1c[nH]cn1)NC(=O)[C@H](C)NC(=O)[C@H](CC(C)C)NC(=O)[C@H](CCCNC(=N)N)NC(=O)[C@H](CCC(N)=O)NC(=O)[C@@H](NC(=O)[C@H](C)NC(=O)[C@@H]1CSSC[C@H](NC(=O)[C@H](CCCNC(=N)N)NC(=O)CNC(=O)CC[C@H](NC(=O)CCCCCCCCCCCCCCCCCCC(=O)O)C(=O)O)C(=O)N[C@@H](CC(N)=O)C(=O)N[C@@H]([C@@H](C)O)C(=O)N[C@@H](C)C(=O)N[C@@H]([C@@H](C)O)C(=O)N1)[C@@H](C)O)C(=O)N1CCC[C@H]1C(=O)N[C@@H](CO)C(=O)N[C@@H](CO)C(=O)N[C@H](C(=O)N[C@@H](CC(N)=O)C(=O)N[C@H](C(=O)NCC(=O)N[C@@H](CO)C(=O)N[C@@H](CC(N)=O)C(=O)N[C@H](C(=O)N[C@@H](Cc1ccc(O)cc1)C(N)=O)[C@@H](C)O)C(C)C)[C@@H](C)O [Example 99] ({C20 diacid-γGlu}-GRCNTATCATQRLAHFLRHSSPNFGAIPSSTNVGSNTY-NH2; disulfide 3-8) | 29%
5 | CC[C@H](C)[C@H](NC(=O)[C@H](C)NC(=O)CNC(=O)[C@H](Cc1ccccc1)NC(=O)[C@H](CC(N)=O)NC(=O)[C@@H]1CCCN1C(=O)[C@H](CO)NC(=O)[C@H](CO)NC(=O)[C@H](Cc1c[nH]cn1)NC(=O)[C@H](CCCNC(=N)N)NC(=O)[C@H](CC(C)C)NC(=O)[C@H](Cc1ccccc1)NC(=O)[C@H](Cc1c[nH]cn1)NC(=O)[C@H](C)NC(=O)[C@H](CC(C)C)NC(=O)[C@H](CCCNC(=N)N)NC(=O)[C@H](CCC(N)=O)NC(=O)[C@@H](NC(=O)[C@H](C)NC(=O)[C@@H]1CSSC[C@H](NC(=O)[C@H](CCCNC(=N)N)NC(=O)CNC(=O)CC[C@H](NC(=O)CCCCCCCCCCCCCCCCCCC(=O)O)C(=O)O)C(=O)N[C@@H](CC(N)=O)C(=O)N[C@@H]([C@@H](C)O)C(=O)N[C@@H](C)C(=O)N[C@@H]([C@@H](C)O)C(=O)N1)[C@@H](C)O)C(=O)N1CCC[C@H]1C(=O)N[C@@H](CO)C(=O)N[C@@H](CO)C(=O)N[C@H](C(=O)N[C@@H](CC(N)=O)C(=O)N[C@H](C(=O)NCC(=O)N[C@@H](Cc1c[nH]cn1)C(=O)N[C@@H](CC(N)=O)C(=O)N[C@H](C(=O)N[C@@H](Cc1ccc(O)cc1)C(N)=O)[C@@H](C)O)C(C)C)[C@@H](C)O [Example 100] ({C20 diacid-γGlu}-GRCNTATCATQRLAHFLRHSSPNFGAIPSSTNVGHNTY-NH2; disulfide 3-8 (inferred)) | 77%
